# Assay results published in the supplement of paper PMC8728848.
# The list shows a part of the results.
# B1: HHA (Hippeastrum hybrid) (protein)
# chain: MQQDCNLVLYDVDKPIWASNTGGLARDCHLNMQSDGNLVVYAPRNQVIWASNTQGENGNYVCILQKDRNVVIYGTARWATGTNIHGAGIVGVPGSAPQNTTAEMIKLVRKYLITK
# Key:
# Experiment in all cases: glycan array binding signal (z-score within array); higher = stronger binding
# Conditions in all cases: glycan notation: IUPAC condensed, linker removed
# [1] = biological target: Fuc(a1-2)Gal(b1-4)GlcNAc(b1-3)Gal(b1-4)GlcNAc(b1-2)Man(a1-3)[Fuc(a1-2)Gal(b1-4)GlcNAc(b1-3)Gal(b1-4)GlcNAc(b1-2)Man(a1-6)]Man(b1-4)GlcNAc(b1-4)GlcNAc
# Procedure, shortened: (§1)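 Glycan array data came from 3228 arrays in the Consortium for Functional Glycomics database, and only arrays with an available protein sequence were kept. Glycan names were put into IUPAC-condensed notation, and columns mapping to the same glycan were averaged. The binding signal is a within-array Z-score, averaged across arrays of one protein sequence run at different concentrations or buffers and across linkers. A negative Z-score can be read as non-binding.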
# [2] = biological target: Fuc(a1-2)Gal(b1-4)GlcNAc(b1-3)Gal(b1-4)GlcNAc(b1-3)Gal(b1-4)GlcNAc
# Procedure, shortened: as §1
# [3] = biological target: Fuc(a1-2)Gal(b1-4)GlcNAc(b1-3)GalNAc
# Procedure, shortened: as §1
# [4] = biological target: Fuc(a1-2)Gal(b1-4)GlcNAc(b1-3)[Fuc(a1-2)Gal(b1-4)GlcNAc(b1-6)]GalNAc
# Procedure, shortened: as §1
# [5] = biological target: Fuc(a1-2)Gal(b1-4)GlcNAc(b1-3)[Fuc(a1-3)[Gal(b1-4)]GlcNAc(b1-6)]Gal(b1-4)Glc
# Procedure, shortened: as §1
# [6] = biological target: Fuc(a1-2)Gal(b1-4)GlcNAc(b1-6)GalNAc
# Procedure, shortened: as §1
# [7] = biological target: Fuc(a1-2)Gal(b1-4)GlcNAc6S
# Procedure, shortened: as §1
# [8] = biological target: Fuc(a1-2)Gal(b1-4)[Fuc(a1-3)]GlcNAc
# Procedure, shortened: as §1
# [9] = biological target: Fuc(a1-2)Gal(b1-4)[Fuc(a1-3)]GlcNAc(b1-2)Man(a1-3)[Fuc(a1-2)Gal(b1-4)[Fuc(a1-3)]GlcNAc(b1-2)Man(a1-6)]Man(b1-4)GlcNAc(b1-4)[Fuc(a1-6)]GlcNAc
# Procedure, shortened: as §1
# [10] = biological target: Fuc(a1-2)Gal(b1-4)[Fuc(a1-3)]GlcNAc(b1-2)[Fuc(a1-2)Gal(b1-4)[Fuc(a1-3)]GlcNAc(b1-4)]Man(a1-3)[Fuc(a1-2)Gal(b1-4)[Fuc(a1-3)]GlcNAc(b1-2)Man(a1-6)]Man(b1-4)GlcNAc(b1-4)GlcNAc
# Procedure, shortened: as §1
# [11] = biological target: Fuc(a1-2)Gal(b1-4)[Fuc(a1-3)]GlcNAc(b1-3)Gal(b1-4)[Fuc(a1-3)]GlcNAc
# Procedure, shortened: as §1
# [12] = biological target: Fuc(a1-2)Gal(b1-4)[Fuc(a1-3)]GlcNAc(b1-3)Gal(b1-4)[Fuc(a1-3)]GlcNAc(b1-3)Gal(b1-4)[Fuc(a1-3)]GlcNAc
# Procedure, shortened: as §1
# [13] = biological target: Fuc(a1-2)Gal(b1-4)[Fuc(a1-3)]GlcNAc(b1-3)GalNAc
# Procedure, shortened: as §1
# [14] = biological target: Fuc(a1-2)Gal(b1-4)[Fuc(a1-3)]GlcNAc(b1-3)[Neu5Ac(a2-6)Gal(b1-4)GlcNAc(b1-6)]Gal(b1-4)Glc
# Procedure, shortened: as §1
# [15] = biological target: Fuc(a1-2)Gal3S(b1-4)GlcNAc
# Procedure, shortened: as §1
# [16] = biological target: Fuc(a1-2)Gal6S(b1-3)GlcNAc
# Procedure, shortened: as §1
# [17] = biological target: Fuc(a1-2)Gal6S(b1-3)GlcNAc6S
# Procedure, shortened: as §1
# [18] = biological target: Fuc(a1-2)Gal6S(b1-4)Glc
# Procedure, shortened: as §1
# [19] = biological target: Fuc(a1-2)Gal6S(b1-4)Glc6S
# Procedure, shortened: as §1
# [20] = biological target: Fuc(a1-2)GlcNAc
# Procedure, shortened: as §1
# [21] = biological target: Fuc(a1-2)[Gal(a1-3)]Gal
# Procedure, shortened: as §1
# [22] = biological target: Fuc(a1-2)[Gal(a1-3)]Gal(b1-3)GalNAc
# Procedure, shortened: as §1
# [23] = biological target: Fuc(a1-2)[Gal(a1-3)]Gal(b1-3)GalNAc(b1-3)Gal(a1-4)Gal(b1-4)Glc
# Procedure, shortened: as §1
# [24] = biological target: Fuc(a1-2)[Gal(a1-3)]Gal(b1-3)GlcNAc
# Procedure, shortened: as §1
# [25] = biological target: Fuc(a1-2)[Gal(a1-3)]Gal(b1-3)GlcNAc(b1-2)Man(a1-3)[Fuc(a1-2)[Gal(a1-3)]Gal(b1-3)GlcNAc(b1-2)Man(a1-6)]Man(b1-4)GlcNAc(b1-4)GlcNAc
# Procedure, shortened: as §1
# [26] = biological target: Fuc(a1-2)[Gal(a1-3)]Gal(b1-3)GlcNAc(b1-2)Man(a1-3)[Fuc(a1-2)[Gal(a1-3)]Gal(b1-3)GlcNAc(b1-2)Man(a1-6)]Man(b1-4)GlcNAc(b1-4)[Fuc(a1-6)]GlcNAc
# Procedure, shortened: as §1
# [27] = biological target: Fuc(a1-2)[Gal(a1-3)]Gal(b1-3)GlcNAc(b1-3)GalNAc
# Procedure, shortened: as §1
# [28] = biological target: Fuc(a1-2)[Gal(a1-3)]Gal(b1-3)GlcNAc(b1-6)GalNAc
# Procedure, shortened: as §1
# [29] = biological target: Fuc(a1-2)[Gal(a1-3)]Gal(b1-4)Glc
# Procedure, shortened: as §1
# [30] = biological target: Fuc(a1-2)[Gal(a1-3)]Gal(b1-4)GlcNAc
# Procedure, shortened: as §1
binder,measurement,setting,value
B1,glycan array binding signal (z-score),[1],-0.182
same,glycan array binding signal (z-score),[2],-0.183
same,glycan array binding signal (z-score),[3],-0.037
same,glycan array binding signal (z-score),[4],-0.2
same,glycan array binding signal (z-score),[5],-0.21
same,glycan array binding signal (z-score),[6],-0.184
same,glycan array binding signal (z-score),[7],-0.207
same,glycan array binding signal (z-score),[8],-0.216
same,glycan array binding signal (z-score),[9],-0.172
same,glycan array binding signal (z-score),[10],-0.152
same,glycan array binding signal (z-score),[11],-0.22
same,glycan array binding signal (z-score),[12],-0.19
same,glycan array binding signal (z-score),[13],-0.127
same,glycan array binding signal (z-score),[14],-0.216
same,glycan array binding signal (z-score),[15],-0.217
same,glycan array binding signal (z-score),[16],-0.212
same,glycan array binding signal (z-score),[17],-0.169
same,glycan array binding signal (z-score),[18],-0.204
same,glycan array binding signal (z-score),[19],-0.207
same,glycan array binding signal (z-score),[20],-0.25
same,glycan array binding signal (z-score),[21],-0.2
same,glycan array binding signal (z-score),[22],-0.211
same,glycan array binding signal (z-score),[23],-0.209
same,glycan array binding signal (z-score),[24],-0.197
same,glycan array binding signal (z-score),[25],0.004
same,glycan array binding signal (z-score),[26],0.663
same,glycan array binding signal (z-score),[27],-0.194
same,glycan array binding signal (z-score),[28],-0.204
same,glycan array binding signal (z-score),[29],-0.207
same,glycan array binding signal (z-score),[30],-0.211
